Values joined by “and” are separate entries in the source; they are usually repeats but may differ in a detail not shown here. Identical values can stand only once. The shares of active, inactive and inconclusive entries below differ from those in the screen. Potencies beside an inconclusive call are fits to weak or partial responses and may not hold up. Some structures have more than one record in an assay (separate samples or runs), and their calls can disagree. Active and inactive are the calls of the source. The call rests on the fitted dose curve; in most records, active means well fitted inhibition curve with a large enough effect in the repeat runs; inconclusive means weak or mixed curves; inactive means no such curve, though single readings can be large or run the other way.
What follows are molecules tested against Cytochrome P450 1A2 (Homo sapiens) (UniProt P05177) (assay: Cytochrome P450 Family 1 Subfamily A Member 2 (CYP1A2) small molecule antagonists: luciferase reporter qHTS assay (AID 1671199; further: nearly all actives have a fitted effect of over 50% in size)). Settings: P450-Glo CYP1A2 enzyme, luciferin luminescence, 1 h; series mostly up to 115 µM; activity change, negative = inhibition: at the top concentration.
UniProt P05177, sequence (P05177 whole entry, looked up): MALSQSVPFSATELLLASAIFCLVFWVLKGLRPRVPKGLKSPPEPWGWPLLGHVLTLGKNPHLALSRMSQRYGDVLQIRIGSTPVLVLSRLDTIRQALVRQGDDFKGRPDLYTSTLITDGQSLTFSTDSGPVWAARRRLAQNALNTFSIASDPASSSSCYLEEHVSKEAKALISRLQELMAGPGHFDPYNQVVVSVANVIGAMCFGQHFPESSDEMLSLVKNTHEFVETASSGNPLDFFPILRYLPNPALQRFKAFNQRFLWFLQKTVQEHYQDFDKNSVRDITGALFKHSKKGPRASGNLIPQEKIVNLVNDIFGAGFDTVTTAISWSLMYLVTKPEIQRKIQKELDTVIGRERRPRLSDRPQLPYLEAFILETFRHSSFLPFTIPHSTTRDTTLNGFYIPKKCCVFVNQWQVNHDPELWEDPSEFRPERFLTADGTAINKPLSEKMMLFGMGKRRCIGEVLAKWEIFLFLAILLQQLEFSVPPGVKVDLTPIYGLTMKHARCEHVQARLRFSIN
Method in brief: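 Human CYP1A2 activity measured with a P450-Glo proluciferin substrate; compounds in DMSO preincubated 10 min at room temperature with enzyme-substrate mix, then NADPH regeneration system added for 1 h. Luciferin detection reagent, 20 min, luminescence read.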
ClC1=C(Cl)[C@]2(Cl)[C@@H]3[C@H]4C[C@H]([C@@H]5O[C@H]45)[C@@H]3[C@@]1(Cl)C2(Cl)Cl was tested, and the Potency was inconclusive: 63.3 µM [inhibitor, partial curve, poor fit].
With CC(C)=CC1C(C(=O)OC(C#N)c2cccc(Oc3ccccc3)c2)C1(C)C (configuration not stated) the Potency was inconclusive: 39.9 µM [inhibitor, partial curve].
In the case of COP(=S)(OC)Oc1ccc([N+](=O)[O-])cc1, the Potency is reported as active: 7.11 µM and active: 2 µM.
In the case of CNC(C)Cc1ccc2c(c1)OCO2 (configuration not stated), the “activity change, negative = inhibition” value is reported as inactive: -21.2%.
In the case of c1ccc(Nc2ccc3ccccc3c2)cc1, the Potency is reported as active: 3.54 µM and active: 3.56 µM.
With CCOC(=O)c1cn2nc(OP(=S)(OCC)OCC)cc2nc1C the Potency was active: 8.94 µM.
CCCCCCCCCCCCCC[P+](CCCCCC)(CCCCCC)CCCCCC was tested, and the Potency was inconclusive: 35.5 µM [inhibitor, partial curve].
Clc1ccc(C(c2ccccc2Cl)C(Cl)(Cl)Cl)cc1 (configuration not stated) was tested, and the Potency was inconclusive: 40.2 µM [inhibitor, partial curve].
For O=C1C2(Cl)C3(Cl)C4(Cl)C(Cl)(Cl)C5(Cl)C3(Cl)C1(Cl)C5(Cl)C24Cl (configuration not stated), the Potency was inconclusive: 35 µM [inhibitor, partial curve].
ClC1=C(Cl)[C@]2(Cl)[C@@H]3[C@@H]4C[C@@H]([C@H]5O[C@@H]45)[C@@H]3[C@@]1(Cl)C2(Cl)Cl was tested, and the Potency was inconclusive: 32.6 µM [inhibitor].
ClC1C(Cl)C(Cl)C(Cl)C(Cl)C1Cl (configuration not stated) was tested, and the Potency was inconclusive: 40.3 µM [inhibitor, partial curve] and inconclusive: 71 µM [inhibitor, partial curve, poor fit] and inconclusive: 39.9 µM [inhibitor, partial curve].
ClC1=C(Cl)C2(Cl)C(CBr)CC1(Cl)C2(Cl)Cl (configuration not stated) was tested, and the Potency was inconclusive: 35.6 µM [inhibitor, partial curve].
In the case of CC(C)COP(=O)(OCC(C)C)OCC(C)C, the Potency is reported as inconclusive: 39.9 µM [inhibitor, partial curve].
In the case of ClC1=C(Cl)C2(Cl)C3C(Cl)C(Cl)CC3C1(Cl)C2(Cl)Cl (configuration not stated), the Potency is reported as inconclusive: 71 µM [inhibitor, partial curve].
With C[C@H]1CC[C@@H]2[C@@H](C)[C@H]3[C@H](C[C@H]4[C@@H]5CC=C6CC(O[C@@H]7O[C@H](CO)[C@H](O)[C@H](O[C@@H]8O[C@H](CO)[C@@H](O)[C@H](O)[C@H]8O)[C@H]7O[C@H]7O[C@@H](C)[C@H](O)[C@@H](O)[C@H]7O)CC[C@]6(C)[C@H]5CC[C@]34C)N2C1 (some centres not stated) the Potency was inconclusive: 82.2 µM [inhibitor].
C=C(C)C(=O)[O][Sn]([CH2]CCC)([CH2]CCC)[CH2]CCC was tested, and the Potency was inconclusive: 31.7 µM [inhibitor, partial curve].
In the case of FC(F)(F)c1ccc(Cl)cc1, the Potency is reported as inconclusive: 44.5 µM [inhibitor] and inconclusive: 44.8 µM [inhibitor, partial curve].
For CCCCCCCc1ccc(O)cc1, the Potency was active: 35.6 µM.
For CC(C)NC(=O)N1CC(=O)N(c2cc(Cl)cc(Cl)c2)C1=O, the Potency was active: 12.6 µM.
CCC(C)(c1ccc(O)cc1)c1ccc(O)cc1 was tested, and the Potency was “inactive and inconclusive: 56.4 µM [inhibitor, partial curve]”.
In the case of CCc1nn(C)c(C(=O)NCc2ccc(C(C)(C)C)cc2)c1Cl, the Potency is reported as active: 22.4 µM.
With Cc1ccc(OP(=O)(Oc2ccccc2)Oc2ccccc2)cc1 the Potency was active: 11.4 µM.
Cc1cc(OC(=O)N(C)C)nn1C(=O)N(C)C was tested, and the Potency was inconclusive: 31.7 µM [inhibitor, partial curve].
CCC[CH2][Sn]([Cl])([CH2]CCC)[CH2]CCC was tested, and the Potency was inconclusive: 71 µM [inhibitor, partial curve].
In the case of CCOP(=S)(OCC)SCn1nnc2ccccc2c1=O, the Potency is reported as active: 35.6 µM.
In the case of COC1=CC(=O)O[C@@H](CCc2ccccc2)C1, the Potency is reported as inconclusive: 37 µM [inhibitor, partial curve].
Oc1ccc(C2(c3ccc(O)cc3)CCCCC2)cc1 was tested, and the Potency was inconclusive: 59.9 µM [inhibitor, partial curve].
O=C1C(Cl)=C(Cl)C(=O)C(Cl)=C1Cl was tested, and the Potency was inconclusive: 35.5 µM [inhibitor, partial curve].
With C[C@]12CC[C@H](O)CC1=CC[C@@H]1[C@@H]2CC[C@]2(C)C(=O)CC[C@@H]12 the Potency was inconclusive: 63.3 µM [inhibitor, partial curve, poor fit].
Oc1ccc(C(c2ccc(O)cc2)(C(F)(F)F)C(F)(F)F)cc1 was tested, and the Potency was “inactive and inconclusive: 63.3 µM [inhibitor, partial curve, poor fit]”.
In the case of CCCCCCCCCCCCCCCCn1cc[n+](C)c1, the Potency is reported as inconclusive: 90.2 µM [inhibitor].
CC(C)C1CCC(Cc2ccc(Cl)cc2)C1(O)Cn1cncn1 (configuration not stated) was tested, and the Potency was active: 31.4 µM.
In the case of Clc1cccc(Cl)c1, the Potency is reported as inconclusive: 39.6 µM [inhibitor, partial curve] and inconclusive: 63.3 µM [inhibitor, partial curve, poor fit].
With CC(C)(O)c1cnn2c(-c3ccc(F)c(-c4c(F)cccc4C#N)c3)cnc2n1 the Potency was inconclusive: 71 µM [inhibitor, partial curve].
In the case of O=[N+]([O-])c1ccc(Nc2ccccc2)cc1, the Potency is reported as active: 12.7 µM and active: 22.4 µM.
C=CC(=O)[O][Sn]([CH2]CCC)([CH2]CCC)[CH2]CCC was tested, and the Potency was inconclusive: 39.9 µM [inhibitor, partial curve].
For Clc1ccc(C(c2ccc(Cl)cc2)C(Cl)(Cl)Cl)cc1, the Potency was inconclusive: 6.37 µM [inhibitor, full curve].

From PubChem BioAssay (Tox21)
On the % scale 0 is the no-effect control and ±100 the full control effect; potency means the concentration at half of the fitted maximal effect; tags describe the fitted curve by direction and shape.
